34 variants from the RNAGym collection of RNA variant scans (doi:10.1093/nar/gkz1192) can be followed below.

First the molecules themselves.
B1: CPEB3 Ribozyme (parent)
chain: UAACAGGGGGCCACAGCAGAAGCGUUCACGUCGCAGCCCCUGUCAGAUUCUGGUGAAUCUGCGAAUUCUGCUGUAUAUCUC

Read counts are not given, so values of variants with three or more changes are uncertain.

The variants in this series derive from B1. As to the kind of experiment: self-cleavage, relative activity (ratio to wild type); higher = more cleavage; in vitro, sequencing. The gist of the method: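 Libraries of CPEB3 self-cleaving ribozyme mutants came from rounds of error-prone PCR and carried barcodes, which DNA sequencing matched to variants. In vitro transcription used T7 RNA polymerase at 37°C for 5 hours, with a further 15 min in DNase I before EDTA stopped the reaction; the ribozymes cleaved during both steps. The RNA was reverse transcribed with template switching and sequenced on Illumina. Relative activity is the cleaved/total read fraction of a variant divided by that of the unmutated ribozyme, averaged over three batches with at least 5 reads.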
Turning to UAACAGGGGGGCACAGCAGAGGCGUUCACGUCGCAGCCCCUGUCAGAUUCUGGUGAAUCUGCGAAUUCUGCUGUAUAACUC [C11G A21G U78A], the self-cleavage is 0.41.
With UAACAGGGGGGCACAGCAGAAGCGUUCACGUCGCGGCCCCUGUCAGGUUCUGGUGAAUCUGCGAAUUCUGCUGUAUAACCC [C11G A35G A47G U78A U80C], the self-cleavage is 0.24.
On to UAACAGGGGGGCACAGCAGAAGCGUUCACGUCGCAGCCCCUGUCAGAUUCUGGUGAAUUUGCGAAUUCAGCUGUAUAUCUC [C11G C59U U69A], for which the self-cleavage came to 0.16.
Take UAACAGGGGGGCACAGCAGAAGCGUUCACGUCGCAGCCCCUGUCAGUUUCUGGUGAAUCUGCGAAUUCUGCUGUGUAUCUC [C11G A47U A75G]: the self-cleavage was found to be 0.27.
As for UAACAGGGGGGCACAGCAGAAGCGUUCACGUCGCAGCCGCUGUCAGAUUCUGGUGAAUCUGCGAAUUCUGCCGUAUAUCUC [C11G C39G U72C], the self-cleavage was found to be 0.19.
Regarding UAACAGGGGGGCACAGCAGAAGCGUUCACGUCGCGGCCCCUGUCAGAUUCUGGUGAAUCUGCGAAUUCUGCUGUUUAUCUC [C11G A35G A75U], the self-cleavage is 0.57.
In the case of UAACAGGGGGGCACAGCAGAAGUGUUCACGUCGCAGCCCCUGUCAGAUCCUGGUGAAUCUGCGAAUUCUGCGGUAUAUCGC [C11G C23U U49C U72G U80G], the self-cleavage stood at 0.04.
Regarding UAACAGGGGGGCACAGCAGAAGCGUUCACGUCGUAGCCCCUGUCAGAUUCUGGUGAAUCCGCGGAUCCGGCUGUAAAUCUC [C11G C34U U60C A64G U67C U69G U76A], the self-cleavage was determined as 0.03.
In the case of UAACAGGGGGGCACAGUAGAAGCGUACACGUCGCAGCCCCUGUCAGAUUCUGGUGAAUCUGCGAAUUCUGCUGUAUAUCUC [C11G C17U U26A] it was 0.13; in that of UAACAGGGGGGCACAGCAGAAGCGUUCUCGUCGCAGCCCCUGUCAGAUCCUGGUGAAUCUGCGAAUUCUGCUGUAUAUCUC [C11G A28U U49C], 0.11; in that of UAACAGGGGGGUCCAGCUGAAGCGCUCACGUCGCAGCCCCUGUCAGAUUCUGGUGAAUCUGCGAAUUCUGCGGUAUAUCUC [C11G C12U A13C A18U U25C U72G], 0.1.
In the case of UAACAGGGGGGCACAGCAGAAGCGUUCACGUCGCGGCCCCUGUCGGAUUCUGGUGAAUCUGCGAACUCUGCUGUAUAUCUC [C11G A35G A45G U66C] it was 0.43.
To UAACAGGGGGGCACAACAGAAGCGUUCACGCCGCUGCCCCUGUCAGAUUCUGGUGAAUCUGCGAAUUGUGCUGUAUAUCUC [C11G G16A U31C A35U C68G] belongs 0.04; to UAACAGGGGGGCACAGCAAAAGCGGUCACGUCGCAGCCCCAGUCGGAUUCUGGUGAAUCUGCGAAUUCUGCUGUAUAACCC [C11G G19A U25G U41A A45G U78A U80C], 0.31.
For UAACAGGGGGGCACAGCAGAAGCGUUCACGUCGCGGCCCCUGUCAGAUACAGGUGAAUCUGCGAAUUCCGCUGUAUAUCUC [C11G A35G U49A U51A U69C], the self-cleavage is 0.07.
As to UAACAGGGGGGCACAGCAGAAGCGUUCGCGUCGCAGCCCCUGUCAGAUCCUGGUGAAUCUGCGAAUUCUGCUGUAUACCUC [C11G A28G U49C U78C], the self-cleavage came to 0.08.
To UAACAGGGGGGCACAGCAGAAGCGUUCACGUCGCAGCGCCUGUCAGAUUCUGGUGAAUCUGCGAAUUCUGCUGUAAAUCUC [C11G C38G U76A] belongs 0.07; to UAACAGGGGGGUACAGCAGAAGCGUUCACGUCGCAGCCCCUGUCAGAUUCUGGUGAGUCUGCGAAUUCUGCUGUAUAUCCC [C11G C12U A57G U80C], 0.09; to UAACAGGGGGGCACAGCAGAAGCGUUCACGUCGCUGCCCCUGUCAGAUUCUGGUGAAUCUGCGAACUCUGCUGUAUGUCUC [C11G A35U U66C A77G], 0.06.
To UAACAGGGGGGAACAGCAGAAGCGUUCACGUCGCAGCCCCUGUCAGAUUCUGGUGAGACAGCGAAUUCUGCCGUAUAUCUC [C11G C12A A57G U58A U60A U72C] belongs 0.09; to UAACAGGGGGGCACAGCAGAAGCGUUCUCGUCGCAGCCCCUGUCGGAUUCUGGUGGAUCUGCGAAUUCUGCUGUAUAUCCC [C11G A28U A45G A56G U80C], 0.05.
Turning to UAACAGGGGGGCACAGUAGAAGCGUUCACGUCGCAGCCCCUGUCAGAUUCUGGUGAAUCUGCGAAUUCUGCUGUACAUCUC [C11G C17U U76C], the self-cleavage amounted to 0.43.
To UAACAGGGGGGCACAGCAGAAGCGUUCACGUCGCAGCCCCUGUCAGAUUCUGGUGGAUCUGCGAAUUCUACUGUAUACCUC [C11G A56G G70A U78C] belongs 0.09; to UAACAGGGGGGCACAGCAGAAGCGUUCACGUCGCAGCCCCUGUCGGAUUCUGGUGAAACUGCGAAUUCUGCUAUAUAUCUC [C11G A45G U58A G73A], 0.11; to UAACAGGGGGGCACAGCAGAAGCGUUCACGUCGCAGCCCCUGUCAGAUUCUGGUGAAUCUGCGAGUUCUGCUGUAUCUCUC [C11G A65G A77C], 0.05.
UAACAGGGGGGCACAUCAGAGGCGUUCACGUCGCAGCCCCUGUCAGAGUCUGGUGAAUCUGCGAAUUCUGCUGUGUAUCUC [C11G G16U A21G U48G A75G]: the self-cleavage was found to be 0.04.
As to UAACAGGGGGGCACAGCAGAAGCGUUCGCGUCGCAGCCCCUGUCAGAUUCUGGUGAAUCUGCGAAUCCUGCUGUAUAUCUC [C11G A28G U67C], the self-cleavage was found to be 0.1.
To UAACAGGGGGGCACAGCAGAAGCGUUCACGUCGUAGCCCCUGUCAGAUUCUGGUGAAUCUGCGAAUUCUGCUGUAUACCUC [C11G C34U U78C] belongs 0.08.
In the case of UAACAGGGGGGCACAGCAGAAGGGUUCACGUCGCAGCCCCAGCCAGAUUCUGGUGAAUCUGCGAAUUCUGCUGUAUAUGUC [C11G C23G U41A U43C C79G] it was 0.22.
In the case of UAACAGGGGGGCACAGCAGAAGCGUUCACGUCGCAGCACCUGUCAGAUUCCGGUGAAUCUGCGAAUUCUGCUGUAUAUCGC [C11G C38A U51C U80G] it was 0.07; in that of UAACAGGGGGGCACAGCAGAAGCGUUCACGUUGCAGCCCCUGUCAGAUUCUGGUGAAUCUGCGGAUUCUGCUGUAUAUCUC [C11G C32U A64G], 0; in that of UAACAGGGGGGCACAGCAGAAGCGUUCAUGCCGCAGCCCCUGUCAGAUUCUGGUGAAUCUGCGAAUUCUGCUGUAUAUCUC [C11G C29U U31C], 0.06.
In the case of UAACAGGGGGGCACAGCAGAAGCGUUCGCGUCGCAGCCCCUGUCAGAUUCUGGUGAGUCUGCGAAUUCUGCCGUGUAUCUC [C11G A28G A57G U72C A75G], the self-cleavage is 0.11.
Regarding UAACAGGGGGGCACAGCAGAAGCGUUCGCGUCGCUGCCCCUGUCAGAUCCUGGUGAAUCUGCGAAUCCUGCGGUAUAUCUC [C11G A28G A35U U49C U67C U72G], the self-cleavage came out at 0.04.
